# Laboratory results reported in the supplement of paper PMC7125110.
# ± gives the standard error. Variants at the background level are over-represented here.
# B1: glmS ribozyme (parent)
# chain: AUAAAAGCGCCAGAACUACAGAAAUGUAGUUGACGAGGAGGAGGUUUAUCGAAUUUUCGGCGGAUGCCUCCAAA
# Variants of: B1
# Experiment: self-cleavage kobs at 10000 uM GlcN6P; higher = faster cleavage; RNA array
# Settings: with glucosamine-6-phosphate
# Procedure, shortened: (§1)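 A hybridised Cy3 probe tracked barcoded ribozyme variants, transcribed in situ by E. coli RNA polymerase on sequenced MiSeq chips, at 37 °C. The variants received 40 μM to 10 mM glucosamine-6-phosphate in HEPES/KCl/Mg(OAc)2 buffer. kobs came from decay fits and kcat and KM from weighted Michaelis–Menten fits.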
row,Variant,self-cleavage kobs at 10000 uM GlcN6P [s⁻¹]
1,C8G A48U C67G,< 1e-05
2,G43C G51C A52C U56A A64C,< 1e-05
3,A14U A15C G51U,< 1e-05
4,G38C A53C A64G,< 1e-05
5,G44U C58U G62U U65C,< 1e-05
6,G43C C50G,< 1e-05
7,G7U A15U A33G,< 1e-05
8,G7A A52U U57C,< 1e-05
9,C8G G29C G37A G38U C58G,< 1e-05
10,A6C G9A C34A G40C G43A C50U U54A C58G C68U,< 1e-05
11,G32U U46G G62U C70G,< 1e-05
12,G44A C58U G62C C71A,< 1e-05
13,C11G C16G G29U G38C A39U U49A C67U U69G,< 1e-05
14,A33U G35U G40U,< 1e-05
15,G44A C50A C68U,< 1e-05
16,A6G G59C G62A,< 1e-05
17,A36C G38U U47C G51C,< 1e-05

row,Variant,self-cleavage kobs at 10000 uM GlcN6P [s⁻¹]
1,G38C G43U G66A,< 1e-05
2,G35U U45C C70G,< 1e-05
3,A6C A14U A36G C70A,< 1e-05
4,G35U A48U U69G C70U,< 1e-05
5,G7C G59U,< 1e-05
6,U2C C10U A53U U56A C68U,< 1e-05
7,C8G G9U G66C C68G,< 1e-05
8,A15U C34A A39C U54A G59C,< 1e-05
9,A6U U30A U31C A36C,< 1e-05
10,A42U A48U A64U C68U,< 1e-05
11,A15U A33C G41C,< 1e-05
12,C11U U55G U65A,4.36e-05 ± 2e-05
13,G7U G37A G40C,< 1e-05
14,A52G C61A U65A,< 1e-05
15,G40A C50A U56A,< 1e-05
16,G7U G29A G44C U47G G66A,< 1e-05
17,C8U A36U U45A,< 1e-05

# Variants of: B1
# Experiment: self-cleavage kobs at 2500 uM GlcN6P; higher = faster cleavage; RNA array
# Settings: with glucosamine-6-phosphate
# Procedure, shortened: as §1
row,Variant,self-cleavage kobs at 2500 uM GlcN6P [s⁻¹]
1,A52C A53U C70U,< 1e-05
2,G37A G40C U49C,< 1e-05
3,G38U G59U,< 1e-05
4,G38A G63A A64U,< 1e-05
5,A39C G44C C67A,0.000176 ± 4.5e-05
6,C34A G35U G59U,< 1e-05
7,G35C A36C G62A U69G C70G,< 1e-05
8,G44A C50A C68U,< 1e-05
9,G44U G60U C71A,< 1e-05
10,C34A G40U G63C,< 1e-05
11,G44U U49C C61A,< 1e-05
12,U54C G60C C68G,< 1e-05
13,C34U A53C G66U,< 1e-05
14,U45G U56G A64G,0.00171 ± 0.00054
15,A42U A48U A64U C68U,< 1e-05
16,G43U U49G C61G,< 1e-05
17,A39G G41A G43C G63U,< 1e-05
18,A53U C67A C70A,5.59e-05 ± 2.7e-05
19,U46A A52C,< 1e-05
